This is one part of the list. Single values are uncertain, as repeats are few or missing.
System: MEL-HO
Assay: cell count relative to DMSO control; melanoma cells; higher = more viable cells
Conditions: library dose: low library concentration; 72 h
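Further: cell number obtained by counting DAPI-stained nuclei in high-throughput microscope images with image analysis software, screen run in 1,536-well plates.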

SMILES | cell count [%]
C=CCNC1=C2C[C@@H](C)C[C@H](OC)[C@H](O)[C@@H](C)/C=C(\C)[C@H](OC(N)=O)[C@@H](OC)/C=C\C=C(/C)C(=O)NC(=CC1=O)C2=O [Tanespimycin] + Cn1cc(/C=C2\C(=O)Nc3cccnc32)c2ccccc21 [GW441756] (first compound 0.002 µM, partner dose 0.4 µM) | 95.1
CNC(=O)c1cc(Oc2ccc(NC(=O)Nc3ccc(Cl)c(C(F)(F)F)c3)cc2)ccn1 [sorafenib] + c1cc(-c2cnn3cc(-c4ccc(OCCN5CCCCC5)cc4)cnc23)ccn1 [Dorsomorphin] (first compound 0.4 µM, partner dose 0.4 µM) | 96.1
C[C@@H](Oc1cc(-c2cnn(C3CCNCC3)c2)cnc1N)c1c(Cl)ccc(F)c1Cl [Crizotinib] + COc1cc(N2CCC(N3CCN(C)CC3)CC2)ccc1Nc1ncc(Cl)c(Nc2ccccc2S(=O)(=O)C(C)C)n1 [NVP-TAE684] (first compound 0.2 µM, partner dose 0.08 µM) | 102
CNC(=O)c1cc(Oc2ccc(NC(=O)Nc3ccc(Cl)c(C(F)(F)F)c3)cc2)ccn1 [sorafenib] + CCCCCCCCCCCC1=C(O)C(=O)C=C(O)C1=O [Embelin] (first compound 0.4 µM, partner dose 1.2 µM) | 91
CS(=O)(=O)CCNCc1ccc(-c2ccc3ncnc(Nc4ccc(OCc5cccc(F)c5)c(Cl)c4)c3c2)o1 [lapatinib] + O=C(Nc1ccccc1)c1cc([N+](=O)[O-])ccc1Cl [GW9662] (first compound 0.8 µM, partner dose 2 µM) | 92.9
